These results are taken from PMC7819943, “Rice protein-binding microarrays: a tool to detect cis-acting elements near promoter regions in rice”.

This is one part of the list.

In this assay the target is T1, OsWOX13 (Oryza sativa, UniProt Q5QMM3 1-267).
T1 sequence: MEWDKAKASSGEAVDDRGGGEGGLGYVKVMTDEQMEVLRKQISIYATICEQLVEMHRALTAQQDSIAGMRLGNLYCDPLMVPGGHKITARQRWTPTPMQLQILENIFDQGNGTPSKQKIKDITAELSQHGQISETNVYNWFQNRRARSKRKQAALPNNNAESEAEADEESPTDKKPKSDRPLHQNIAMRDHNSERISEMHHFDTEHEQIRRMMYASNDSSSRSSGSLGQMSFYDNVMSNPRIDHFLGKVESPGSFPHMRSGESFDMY
The assay can be described thus: protein-binding microarray (RPBM); PBS, 2% BSA, 51.3 ng/ul salmon testes DNA, 50 uM zinc acetate, 200 nM TF, 25 C, 1 h; high values mean tight binding. To be noted: protein: recombinant; tags: N-terminal polyhistidine and DsRed monomer fusion (pET32a); label: CyDye5-dUTP incorporated in the synthesized complementary strand; 3' TTTTT single-stranded linker to array surface; dsDNA, one strand shown. The method in brief:
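In PBS with 2% BSA, salmon testes DNA and 50 µM zinc acetate, 200 nM protein was incubated on a custom Agilent array at 25 °C for 1 h and then washed off. The array had been made double-stranded by primer extension with Cy5-dUTP and blocked with 2% BSA. The proteins were transcription factors fused N-terminally to polyhistidine and DsRed, expressed in E. coli BL21-CodonPlus and purified on Ni–NTA. The binding signal is per-feature fluorescence intensity (arbitrary units) from an Axon 4000B scanner.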
As to “GGAGCAGACTTGATTTCTGATTTTGCTCGGCACCGTGAATCGGAGTCACCTAGTGCAG”, the binding signal is 4430 fluorescence intensity (a.u.).

Turning to “CCTTTTAATTATTTGATATTACGTTCTTCTCTAATATTCGCGGAGTCACCTAGTGCAG”, the binding signal is 21600 fluorescence intensity (a.u.).

As to “AAATTACTAATTTACCTATAATTAGTTGGACTCTAGCTCTCGGAGTCACCTAGTGCAG”, the binding signal is 37600 fluorescence intensity (a.u.).

With “CAACACTTCAATCAGGGGAGAAGGAGGCGGCGACAACAAACGGAGTCACCTAGTGCAG”, the binding signal was 5000 fluorescence intensity (a.u.).

Consider “ATGCAAAGTTGCAGGGATTGATTGGCTGTTTCGTTTGCTACGGAGTCACCTAGTGCAG”, for which the binding signal is 21800 fluorescence intensity (a.u.).

“TTTAACTGAAAATCGATGGTTAGATTTGATAGAGCCATGTCGGAGTCACCTAGTGCAG”: the binding signal was 26600 fluorescence intensity (a.u.).

In the case of “ATCGTGTTGATTGGAATTGTAAGTAGTCCTAGCTAGTGCTCGGAGTCACCTAGTGCAG”, the binding signal is 49700 fluorescence intensity (a.u.).

Take “TCATCCAAATTACTTCATGACACATGAAACTAACAGAAGCCGGAGTCACCTAGTGCAG”: the binding signal was 5750 fluorescence intensity (a.u.).

As to “AAATTGATCATTTGCGTAATCATCACTAAGTTCGTTTTGACGGAGTCACCTAGTGCAG”, the binding signal is 8000 fluorescence intensity (a.u.).

Turning to “CACTCCAGATTGGTTGCTTGCTTGCTTTCTGCGTCGTCGTCGGAGTCACCTAGTGCAG”, the binding signal is 6670 fluorescence intensity (a.u.).

“CACTGATATGATCCACCACAATTAATGTGCTCGAGACGACCGGAGTCACCTAGTGCAG”: the binding signal is 7230 fluorescence intensity (a.u.).

As to “CAGATTATGTGCCGTCAAATTGAGGAACTATATTGACCGGCGGAGTCACCTAGTGCAG”, the binding signal is 6930 fluorescence intensity (a.u.).

Regarding “TATTTAGACAGGTGTAAATAAATAAAAGAGACGTGTGGTCCGGAGTCACCTAGTGCAG”, the binding signal is 11100 fluorescence intensity (a.u.).

Take “CAGGTGAATTATTAGTAAATTAACCCAGCATCTCATCTGGCGGAGTCACCTAGTGCAG”: the binding signal was 8610 fluorescence intensity (a.u.).

“CATTATAACATTTAATGATGAGCTGCACTCATTCTCATCGCGGAGTCACCTAGTGCAG”: the binding signal was 5250 fluorescence intensity (a.u.).

Regarding “AGGCCTCTTAATTATTTCAAATGACATAGCTATTGACTGCCGGAGTCACCTAGTGCAG”, the binding signal is 15100 fluorescence intensity (a.u.).

As for “AGCCTAATTAATCTATAATTAGAGAATGTTTACTGTAGCACGGAGTCACCTAGTGCAG”, the binding signal is 46200 fluorescence intensity (a.u.).

For the sequence “ATAGGTGACAGACCGGTAAATTCTTCCCGGGTGCACACGACGGAGTCACCTAGTGCAG”, the binding signal was 3180 fluorescence intensity (a.u.).

Take “TTGTTTATTTTATCAATTGACGTGTTCATGCAATCCACAACGGAGTCACCTAGTGCAG”: the binding signal was 6220 fluorescence intensity (a.u.).

For the sequence “GAAGATTGGGCTTCGTGCACAAATTTGTTGCTGTCGTCGACGGAGTCACCTAGTGCAG”, the binding signal was 6800 fluorescence intensity (a.u.).

For the sequence “AAGTTAAATTTAGACGTTGAAACCCTGTTAAACATGTCCTCGGAGTCACCTAGTGCAG”, the binding signal was 9350 fluorescence intensity (a.u.).

As for “ATATGAAATTTGGAAATTATGTTATATATGCATGAATTGTCGGAGTCACCTAGTGCAG”, the binding signal was 4160 fluorescence intensity (a.u.).

Turning to “ATTAATAGAAAACTTAAATTGACTGAATGTATGTAGTTTTCGGAGTCACCTAGTGCAG”, the binding signal was 31800 fluorescence intensity (a.u.).

On to “TAACACATCATTATCAATCTCTAGGCTTACATGAGATTAGCGGAGTCACCTAGTGCAG”, for which the binding signal was 8620 fluorescence intensity (a.u.).

Take “ATAGATATTTTATTTAAATTTATAATATTAAAATATGTCACGGAGTCACCTAGTGCAG”: the binding signal is 5780 fluorescence intensity (a.u.).

Consider “ATGACTGATAATCTAAGACATGAAATAACTGAAATTCTGTCGGAGTCACCTAGTGCAG”, for which the binding signal is 36100 fluorescence intensity (a.u.).

“TGTAACTGGATGACAAGTTGAGGGACCTTCGGTGGACTTTCGGAGTCACCTAGTGCAG”: the binding signal is 4390 fluorescence intensity (a.u.).

For “TCAATTTGTCAGCATTAATTAACTTCTTTTAACAAGAGAACGGAGTCACCTAGTGCAG”, the binding signal was 13700 fluorescence intensity (a.u.).

Regarding “CGAAACACTTGGCAATTAATCAATTAATCAGCAACTAGTACGGAGTCACCTAGTGCAG”, the binding signal was 14900 fluorescence intensity (a.u.).

For “CTCTTCATTTTCATGATTGCATGAATGTTATTTTCCCATACGGAGTCACCTAGTGCAG”, the binding signal was 7630 fluorescence intensity (a.u.).

Turning to “TACTAATCCAACAAATAATTTTGCTTGAGTTCATATGTTGCGGAGTCACCTAGTGCAG”, the binding signal is 3140 fluorescence intensity (a.u.).

As to “TTGTCATTTAATTTTAGAAATAGAAAGGGAATAGACATATCGGAGTCACCTAGTGCAG”, the binding signal is 4860 fluorescence intensity (a.u.).

On to “GCCAATCAGAGGTTATCATGTCGTAGCACTATTGTCAACTCGGAGTCACCTAGTGCAG”, for which the binding signal is 3210 fluorescence intensity (a.u.).

Take “CCTTGATCGACGATCACTGCTCGGGGATCCAACCTAGATCCGGAGTCACCTAGTGCAG”: the binding signal was 3140 fluorescence intensity (a.u.).

For the sequence “AGTATCTATTATTAATTGTTTGTTCCATTCTGGCTTGTAGCGGAGTCACCTAGTGCAG”, the binding signal was 12000 fluorescence intensity (a.u.).

Consider “AAACAATTATCGATAATAAATATATCCTATTAGTACTTAGCGGAGTCACCTAGTGCAG”, for which the binding signal was 13500 fluorescence intensity (a.u.).

In the case of “CGGATTAATTAGGCTTAATAAATTTGTCTCGCGGTTTATACGGAGTCACCTAGTGCAG”, the binding signal was 44500 fluorescence intensity (a.u.).

For the sequence “AGTGATAGAGATTATTAGAATACTATTCTCCTAATTAGTACGGAGTCACCTAGTGCAG”, the binding signal was 17700 fluorescence intensity (a.u.).

For “AGATTGATATAATTATCATTTATTTTATTGTAAGTTGTTTCGGAGTCACCTAGTGCAG”, the binding signal was 23400 fluorescence intensity (a.u.).

“TTTCTTCGATTAATGTGGTAATTTCTAGCCTCCACAGTGACGGAGTCACCTAGTGCAG”: the binding signal is 4220 fluorescence intensity (a.u.).

As to “TTTGGAATTGACAGCGCAAATGCAGTTGTCCTGGAGGATACGGAGTCACCTAGTGCAG”, the binding signal is 26300 fluorescence intensity (a.u.).

As to “AAGACTAATTTCCAACGCTAATAAAATACTGCAAGGACAACGGAGTCACCTAGTGCAG”, the binding signal was 4510 fluorescence intensity (a.u.).
